Measured values published in patent US5693476 (The Board of Trustees of the Leland Stanford Junior …, dated 1997).

Molecular target: syntaxin 1A amino-terminal domain (amino acids 4-193), recombinant (rat)
Experiment: SPR (BIAcore), syntaxin 1A amino-terminal domain immobilized, FIG. 10B

Kd: 4.1 µM | koff: 0.009 s⁻¹ | kon: 2200 M⁻¹ s⁻¹
B1: syntaxin 1A carboxyl-terminal domain ([…]), soluble recombinant (other)
chain: not shown
